{"source": "PubChem BioAssay AID504333", "about": "(National Center for Advancing Translational Sciences (NCATS), 2011)", "note": "The whole screen tested about 360,000 compounds, of which about 16,000 (4.4%) were called active. Inconclusive results, whose numbers are uncertain, are shown with a selection of clear calls. The call rests on the fitted dose curve; in most records, active means well fitted inhibition curve with a large enough effect; inconclusive means small, poorly fitted or top-dose-only effect; inactive means no such curve, though single readings can be large or run the other way. Potencies beside an inconclusive call are fits to weak or partial responses and may not hold up. Potency means the concentration at half of the fitted maximal effect; tags describe the fitted curve by direction and shape.", "data": [{"target": "Bromodomain adjacent to zinc finger domain protein 2B (Homo sapiens) (UniProt Q9UIF8)", "sequence (Q9UIF8 whole entry, looked up, the tested form may be a part)": "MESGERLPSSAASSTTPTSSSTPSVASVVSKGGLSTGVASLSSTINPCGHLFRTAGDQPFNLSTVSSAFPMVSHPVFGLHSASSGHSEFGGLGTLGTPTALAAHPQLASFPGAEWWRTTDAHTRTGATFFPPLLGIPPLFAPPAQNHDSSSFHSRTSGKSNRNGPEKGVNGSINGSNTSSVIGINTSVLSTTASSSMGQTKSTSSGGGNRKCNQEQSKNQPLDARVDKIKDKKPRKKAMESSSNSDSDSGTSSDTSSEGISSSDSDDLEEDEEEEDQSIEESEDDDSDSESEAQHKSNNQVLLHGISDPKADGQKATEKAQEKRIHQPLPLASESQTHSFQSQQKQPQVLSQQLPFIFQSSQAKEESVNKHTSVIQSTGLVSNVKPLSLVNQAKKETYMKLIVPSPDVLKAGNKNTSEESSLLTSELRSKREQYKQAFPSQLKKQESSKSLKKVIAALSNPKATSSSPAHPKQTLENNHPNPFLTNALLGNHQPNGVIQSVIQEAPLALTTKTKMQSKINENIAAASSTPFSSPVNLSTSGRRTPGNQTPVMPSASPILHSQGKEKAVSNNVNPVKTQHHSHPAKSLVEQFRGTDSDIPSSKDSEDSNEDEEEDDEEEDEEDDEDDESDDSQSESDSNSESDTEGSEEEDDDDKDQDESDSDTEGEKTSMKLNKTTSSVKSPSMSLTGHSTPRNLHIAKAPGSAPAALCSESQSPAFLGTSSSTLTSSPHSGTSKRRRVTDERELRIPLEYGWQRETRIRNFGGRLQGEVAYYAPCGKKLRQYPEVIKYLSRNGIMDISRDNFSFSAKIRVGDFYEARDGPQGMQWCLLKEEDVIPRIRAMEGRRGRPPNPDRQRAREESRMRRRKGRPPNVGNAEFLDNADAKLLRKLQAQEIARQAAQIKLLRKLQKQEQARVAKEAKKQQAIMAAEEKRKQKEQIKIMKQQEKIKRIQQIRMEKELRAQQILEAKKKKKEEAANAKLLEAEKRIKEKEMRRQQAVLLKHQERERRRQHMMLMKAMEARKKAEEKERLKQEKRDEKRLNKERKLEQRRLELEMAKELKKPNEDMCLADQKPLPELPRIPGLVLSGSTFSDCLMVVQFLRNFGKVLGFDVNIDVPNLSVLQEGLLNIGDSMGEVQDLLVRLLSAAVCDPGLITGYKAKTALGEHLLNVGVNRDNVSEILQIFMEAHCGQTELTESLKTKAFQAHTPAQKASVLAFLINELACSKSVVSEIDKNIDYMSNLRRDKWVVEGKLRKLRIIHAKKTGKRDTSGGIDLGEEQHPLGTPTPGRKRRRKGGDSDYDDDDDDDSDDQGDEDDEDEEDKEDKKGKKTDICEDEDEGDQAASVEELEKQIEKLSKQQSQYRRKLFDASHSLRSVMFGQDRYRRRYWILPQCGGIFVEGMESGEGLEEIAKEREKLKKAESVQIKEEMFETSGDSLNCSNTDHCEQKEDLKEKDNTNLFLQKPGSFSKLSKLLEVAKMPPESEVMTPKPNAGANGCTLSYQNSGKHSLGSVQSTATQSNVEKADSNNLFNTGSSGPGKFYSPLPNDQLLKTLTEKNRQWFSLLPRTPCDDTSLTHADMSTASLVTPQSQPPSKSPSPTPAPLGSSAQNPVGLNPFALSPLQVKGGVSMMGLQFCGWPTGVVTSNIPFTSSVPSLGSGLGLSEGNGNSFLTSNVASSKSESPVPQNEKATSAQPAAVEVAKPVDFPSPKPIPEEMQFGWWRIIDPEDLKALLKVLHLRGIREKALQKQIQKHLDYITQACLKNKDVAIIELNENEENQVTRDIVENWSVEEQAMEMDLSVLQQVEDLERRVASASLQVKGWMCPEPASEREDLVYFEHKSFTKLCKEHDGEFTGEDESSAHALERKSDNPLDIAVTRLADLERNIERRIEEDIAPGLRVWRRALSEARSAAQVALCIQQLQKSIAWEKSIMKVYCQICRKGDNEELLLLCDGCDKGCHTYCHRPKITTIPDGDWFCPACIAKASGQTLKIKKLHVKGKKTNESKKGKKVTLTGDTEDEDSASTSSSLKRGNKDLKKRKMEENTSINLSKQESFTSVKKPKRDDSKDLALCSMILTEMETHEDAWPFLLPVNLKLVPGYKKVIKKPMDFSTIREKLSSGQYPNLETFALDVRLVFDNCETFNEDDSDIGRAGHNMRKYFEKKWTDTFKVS", "assay": "qHTS Assay for Inhibitors of BAZ2B; further: nearly all actives have a fitted effect of over 60% in size", "settings": "AlphaScreen BAZ2B-H3K14Ac peptide displacement; series mostly up to 114 µM", "outline": "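In this displacement format the biotinylated H3(5-23) peptide acetylated at Lys14 serves as ligand at 50 nM, with BAZ2B at 50 nM in PBS pH 7.4 containing 0.01% Tween-20. Donor and acceptor beads are 10 ug/mL final.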", "values": [{"smiles": "O=C(O)c1ccccc1/C=N/NC(=S)NCc1ccccc1", "Potency": "inconclusive: 89.1 µM [inhibitor, single point]"}, {"smiles": "COc1cccc(-c2nc3c(c(SCC(=O)Nc4cc(C)ccc4C)n2)Cc2c(CO)cnc(C)c2O3)c1", "Potency": "inactive"}, {"smiles": "Cc1cccn2c(=O)cc(COc3cccc(NC(=O)COc4ccccc4)c3)nc12", "Potency": "inactive"}, {"smiles": "Brc1cccc(CN2CCCCCCC2)c1", "Potency": "inconclusive: 89.1 µM [inhibitor, single point]"}, {"smiles": "COc1ccc(-c2nc(C#N)c(NCc3ccc(F)cc3)o2)cc1OC", "Potency": "inconclusive: 39.8 µM [inhibitor, full curve]"}, {"smiles": "COc1ccc(Nc2cc(C(=O)NCCCN(C)Cc3ccccc3)c3ccccc3n2)cc1", "Potency": "inconclusive: 22.4 µM [inhibitor, full curve]"}, {"smiles": "Cn1nnnc1SCc1ccccc1[N+](=O)[O-]", "Potency": "inactive"}, {"smiles": "COc1ccc(CN2C(=O)C(C)S/C2=N/N=C/c2ccco2)cc1", "note": "(stereo not given)", "Potency": "inconclusive: 50.1 µM [inhibitor, partial curve]"}, {"smiles": "CC(=O)Nc1ccc(S(=O)(=O)N2CCN(CC(=O)NC3CCCC3)CC2)cc1", "Potency": "inconclusive: 89.1 µM [inhibitor, single point]"}, {"smiles": "COc1ccc(CNc2ccc3c(c2)CCC3)cc1OC", "Potency": "inconclusive: 89.1 µM [inhibitor, single point]"}, {"smiles": "CCNC(=S)N(Cc1cc2cc(C)ccc2[nH]c1=O)C1CCCC1", "Potency": "inconclusive: 89.1 µM [inhibitor, single point]"}, {"smiles": "c1ccc(COc2ccc(OCCCCN3CCCC3)cc2)cc1", "Potency": "active: 56.2 µM"}, {"smiles": "COc1ccc(OC)c(NC(=O)Cc2cccs2)c1", "Potency": "inconclusive: 50.1 µM [inhibitor, partial curve]"}, {"smiles": "CCOC(=O)C1CCN(C(=O)CCNS(=O)(=O)c2ccc(C)cc2)CC1", "Potency": "inactive"}, {"smiles": "C=CCN1CCc2cc(O)c(O)cc2C(c2ccccc2)C1", "note": "(stereo not given)", "Potency": "inactive"}, {"smiles": "O=C(NCCCn1ccnc1)C(=O)NCC1OCCN1S(=O)(=O)c1ccc(Cl)cc1", "note": "(stereo not given)", "Potency": "active: 12.6 µM"}, {"smiles": "COc1cc(CN2CCC(C(=O)N3CCCC(C)C3)CC2)cc(Br)c1O", "note": "(stereo not given)", "Potency": "active: 22.4 µM"}, {"smiles": "O=C(/C(=N/N=C/c1ccc(O)c(O)c1O)c1ccccc1)c1ccccc1", "Potency": "active: 31.6 µM"}, {"smiles": "CN1CN(C)c2cccc3cccc1c23", "Potency": "inconclusive: 70.8 µM [inhibitor, single point]"}, {"smiles": "Cc1cc(CN2CCCCC2C(=O)Nc2ccc(Oc3cccnc3)cc2)oc1C", "note": "(stereo not given)", "Potency": "inconclusive: 79.4 µM [inhibitor, single point]"}, {"smiles": "COCCNC(=O)/C(C#N)=C/c1ccc(O)c([N+](=O)[O-])c1", "Potency": "inconclusive: 79.4 µM [inhibitor, single point]"}, {"smiles": "COc1ccc(C2=NN(C(=O)CCC(=O)O)C(c3ccc(Br)cc3)C2)cc1", "note": "(stereo not given)", "Potency": "inactive"}, {"smiles": "COc1ccc(OC)c(CN2CCN(Cc3cc(OC)c(OC)c(OC)c3)CC2)c1", "Potency": "active: 79.4 µM"}, {"smiles": "Cc1ccn2c(=O)nc(SCC(=O)N3CCCc4ccccc43)nc2c1", "Potency": "inconclusive: 89.1 µM [inhibitor, single point]"}, {"smiles": "CCc1nn(CCCC(=O)N2CCN(c3cccc(C)c3C)CC2)c(=O)c2cc3occc3n12", "Potency": "inconclusive: 14.1 µM [inhibitor, full curve]"}, {"smiles": "COc1ccc(-n2c(=O)c3c4c(sc3n3c(=S)[nH]nc23)COC(C(C)C)C4)cc1", "note": "(stereo not given)", "Potency": "inactive"}, {"smiles": "COC(=O)/C=C1\\SC(N2CCOCC2)=C(c2ccc(OC)cc2)C1=O", "Potency": "active: 44.7 µM"}, {"smiles": "CCOC(=O)c1cc(C)n(CCc2ccccc2)c1C", "Potency": "inactive"}, {"smiles": "O=[N+]([O-])c1cccc(-c2nc3ccc([N+](=O)[O-])cc3[nH]2)c1", "Potency": "inactive"}, {"smiles": "CCOC(=O)c1cc(-c2ccccc2)n(-c2cccc(C(=O)N(C)c3ccc(C)cc3)c2)c1C", "Potency": "inconclusive: 10 µM [inhibitor, full curve]"}, {"smiles": "COc1ccc(C2C(C#N)=C(N)Oc3c2c(C)nn3-c2ccccc2)cc1Cn1nc(C)c([N+](=O)[O-])c1C", "note": "(stereo not given)", "Potency": "inconclusive: 70.8 µM [inhibitor, partial curve, poor fit]"}, {"smiles": "CCOC(=O)c1cnc(Nc2nc3ccccc3o2)nc1C", "Potency": "inconclusive: 7.08 µM [inhibitor, single point]"}, {"smiles": "Cc1ccc(-n2c(C)cc(C(=O)NS(=O)(=O)c3ccc(C)cc3)c2C)cc1", "Potency": "inconclusive: 89.1 µM [inhibitor, single point]"}, {"smiles": "CC(C)c1ccc(Nc2c(-c3ccc(N4CCOCC4)cc3)nc3ncccn23)cc1", "Potency": "inactive"}, {"smiles": "COc1ccc(/C=N/c2oc(-c3ccccc3)cc2C#N)cc1OC", "Potency": "inconclusive: 89.1 µM [inhibitor, single point]"}, {"smiles": "CCCN(CCC)C1CC(=O)N(Cc2ccccc2)C1=O", "note": "(stereo not given)", "Potency": "inactive"}, {"smiles": "COc1ccc(NC(=O)C(c2ccc(OC)cc2)N(Cc2ccco2)C(=O)CC2NC(=O)NC2=O)cc1", "note": "(stereo not given)", "Potency": "inconclusive: 79.4 µM [inhibitor, single point]"}, {"smiles": "O=C1c2ccccc2-c2onc3c(N4CCN(CCO)CC4)cc(N4CCN(C(=O)c5ccco5)CC4)c1c23", "Potency": "active: 15.8 µM"}, {"smiles": "Cc1cc(C)c(C)c(S(=O)(=O)NCC(=O)Nc2ccc(F)cc2)c1C", "Potency": "inactive"}, {"smiles": "COc1ccc(-n2c(C)ccc2C)c([N+](=O)[O-])c1", "Potency": "inconclusive: 50.1 µM [inhibitor, partial curve]"}, {"smiles": "O=C(Nc1ccc(S(=O)(=O)N2CCOCC2)cc1)c1ccc(=O)[nH]c1", "Potency": "inactive"}, {"smiles": "Cc1c(CCC(=O)NCCCn2ccnc2)c(=O)oc2c(C)c3occ(C(C)(C)C)c3cc12", "Potency": "active: 25.1 µM"}, {"smiles": "CCCCn1c(O)c(N=NC(=O)c2ccco2)c2ccccc21", "Potency": "inconclusive: 28.2 µM [inhibitor, partial curve]"}, {"smiles": "O=C(Nc1ccc(F)c(Cl)c1)C1Cc2ccccc2CN1S(=O)(=O)c1ccc(F)cc1", "note": "(stereo not given)", "Potency": "inconclusive: 89.1 µM [inhibitor, single point]"}, {"smiles": "O=C(CN1CCCc2ccccc21)Nc1ccc(F)cc1[N+](=O)[O-]", "Potency": "inconclusive: 3.55 µM [inhibitor, full curve]"}, {"smiles": "O=C(CCc1nnc2ccc(NCc3ccco3)nn12)Nc1ccccn1", "Potency": "active: 50.1 µM"}, {"smiles": "COc1cccc(-c2cc(C(=O)Nc3ccc([N+](=O)[O-])cn3)c3ccccc3n2)c1", "Potency": "inconclusive: 89.1 µM [inhibitor, single point]"}, {"smiles": "COc1ccccc1NC(=O)c1c(C)cc(C)nc1SCC(=O)Nc1cccc(C)c1", "Potency": "inactive"}, {"smiles": "O=C(CNC(=O)c1ccco1)N=Nc1c(O)n(CCc2ccccc2)c2ccccc12", "Potency": "inconclusive: 56.2 µM [inhibitor, partial curve]"}, {"smiles": "Cc1cc(C)n(-c2nnc(N3CCN(c4ccccc4)CC3)nn2)n1", "Potency": "inconclusive: 50.1 µM [inhibitor, partial curve, poor fit]"}, {"smiles": "CCOCCCNC(=S)N1CCN(Cc2ccco2)CC1", "Potency": "active: 35.5 µM"}, {"smiles": "Cc1ccc(Cn2ccn(Cc3cccc(C(F)(F)F)c3)c(=O)c2=O)cc1", "Potency": "inconclusive: 89.1 µM [inhibitor, single point]"}, {"smiles": "CCc1nn2cc(C(=O)c3cc(Cl)ccc3O)cnc2c1-c1ccc(F)cc1", "Potency": "inconclusive: 39.8 µM [inhibitor, full curve]"}, {"smiles": "Cn1c(C(=O)N2CCN(c3ccccc3)CC2)cc2cc(Cl)ccc21", "Potency": "inconclusive: 89.1 µM [inhibitor, single point]"}, {"smiles": "Nc1nnc(SCCOc2cccc(Br)c2)s1", "Potency": "inactive"}, {"smiles": "Cc1ccc2oc(-c3cccc(NC(=O)c4cccc5c(Br)cccc45)c3)nc2c1", "Potency": "inactive"}, {"smiles": "CC(=O)N1c2ccccc2CC1C(=O)N1CCN(c2cccc(C)c2C)CC1", "note": "(stereo not given)", "Potency": "inactive"}, {"smiles": "Clc1ccccc1CSc1nncn2c1cc1occc12", "Potency": "inconclusive: 39.8 µM [inhibitor, full curve]"}, {"smiles": "O=C(CCCn1c(=O)c2cccn2c2ccccc21)Nc1cccc(Cl)c1", "Potency": "inconclusive: 56.2 µM [inhibitor, partial curve]"}, {"smiles": "COc1ccc(S(=O)(=O)N2CCN(c3nn(C)c(=O)n(C)c3=O)CC2)cc1", "Potency": "inactive"}, {"smiles": "COc1ccccc1N1CCN(S(=O)(=O)c2ccc(F)cc2)CC1", "Potency": "inconclusive: 89.1 µM [inhibitor, single point]"}, {"smiles": "O=C(N/N=C/c1ccco1)C1CC1c1ccccc1", "note": "(stereo not given)", "Potency": "active: 50.1 µM"}, {"smiles": "COc1ccc(NC(=O)CC2Nc3cccc4cccc(c34)NC2=O)cc1", "note": "(stereo not given)", "Potency": "inconclusive: 39.8 µM [inhibitor, partial curve]"}, {"smiles": "CN1CCN(CC(=O)O)CC1", "Potency": "inconclusive: 63.1 µM [inhibitor, single point]"}, {"smiles": "COC(=O)c1ccc2c(=O)sc(N3CCC(C(N)=O)CC3)nc2c1", "Potency": "inactive"}, {"smiles": "Nc1ccc(C(CC(=O)O)n2cccc2)cc1", "note": "(stereo not given)", "Potency": "active: 79.4 µM"}, {"smiles": "CCC(=O)Nc1nc(=S)ss1", "Potency": "inconclusive: 89.1 µM [inhibitor, single point]"}, {"smiles": "Cc1nc(NC(=O)c2ccccc2)sc1-c1csc(NCc2ccco2)n1", "Potency": "inconclusive: 12.6 µM [inhibitor, full curve]"}, {"smiles": "COC(=O)C1=C(C)OC(N)=C(C#N)C1c1c(C)nn(C)c1C", "note": "(stereo not given)", "Potency": "inactive"}, {"smiles": "O=S(=O)(c1ccc(Br)cc1)c1nc(-c2ccco2)oc1SCc1ccccc1F", "Potency": "inactive"}, {"smiles": "Cc1nn(-c2ccc(Cl)cc2)c(NC(=O)C(C)C)c(-c2ccccc2)c1=O", "Potency": "inactive"}, {"smiles": "COc1ccc(NC(=O)c2ccco2)cc1NC(=O)C(C)Oc1ccc(Cl)cc1Cl", "note": "(stereo not given)", "Potency": "inconclusive: 63.1 µM [inhibitor, partial curve]"}, {"smiles": "OC(CN1CCCC(C(F)(F)F)C1)c1ccccc1", "note": "(stereo not given)", "Potency": "inactive"}, {"smiles": "CCOC(=O)CNC(=O)c1cc2c(=O)n(CC)c3ccccc3c2s1", "Potency": "inactive"}, {"smiles": "C[C@]12CCC3C(CC=C4C[C@@H](O)CC[C@@]43C)C1CCC2[C@]1(C)CCC(=O)O1", "note": "(stereo not given in full)", "Potency": "active: 56.2 µM"}]}]}
